Test results reported in PubChem BioAssay AID1347071 (National Center for Advancing Translational Sciences (NCATS), 2019).
Screen size: about 410,000 compounds; about 260 (0.063%) were called active. Inconclusive results, whose numbers are uncertain, are shown with a selection of clear calls. Calls come from the whole dose curve; as a rule, active = well fitted activation curve with a large enough effect; inconclusive = small, poorly fitted or top-dose-only effect; inactive = no such curve, though single readings can be large or run the other way. No potency is given beside an inconclusive call; the fits are too rough.

Assay: qHTS for compounds that reverse cellular toxicity of Amyloid beta (A-beta) peptide in yeast: Primary Screen; note: nearly all actives have a fitted effect of over 55% in size
Conditions: yeast expressing A-beta42, growth rescue, OD600, 48 h; growth rescue: at 46.1 µM (top of the series), 0% DMSO, 100% iron-clioquinol control
Source text: The A-beta peptide is produced by the processing of the amyloid precursor protein (APP) by two proteases, beta and gamma secretases. […] A-beta42 is regarded as the most amyloidogenic form due to its hydrophobicity; however, precisely how A-beta42 induces neurotoxicity is unclear. To understand further this biology and its potential therapeutic implications for human neurodegenerative disease, a quantitative high-throughput screen for compounds that reverse the cellular toxicity of the A-beta peptide was developed. A yeast based screen was used because it recapitulates the salient feature of protein mis-folding disorder accurately. This cell-based phenotypic screen provides a significant, unbiased advantage by letting the compounds and models inform us which proteins or pathways are most relevant. The ideal chemical candidates would therefore have activity in both our primary yeast and secondary neuronal toxicity assays, as well as in mouse models. They will be valuable tools for dissecting diverse protein homeostasis pathologies and could potentially become the focus for future pre-clinical development. For this luminescence assay, inhibition of A-beta rescues the toxic effect in the yeast cell, resulting in increase of signals and the desired phenotype of "Activator". This screen is run against the Molecular Libraries Small Molecule Repository (MLSMR) and the NCGC Sytravon Library Collection.
NIH Chemical Genomics Center [NCGC]
NIH Molecular Libraries Probe Centers Network [MLPCN]
Assay Submitter (PI): Susan Lindquist, Whitehead Institute, Massachusetts Institute of Technology
[1] Vassar R,et al (1999). Beta-secretase cleavage of Alzheimer's amyloid precursor protein by the transmembrane aspartic protease BACE. Science. 286: 735-741.
[2] Yan R, et al (1999). Membrane-anchored aspartyl protease with Alzheimer's disease beta-secretase activity. Nature. 402: 533-536.
Two and a half microliter / well of yeast growth medium were dispensed in a 1536 assay plate. Compounds were pinned using the Kalypsys robotic system followed by addition of 2.5 uL / well yeast solution. The assay plates were incubated at 30 C. After 48 hr, the absorbance signal at 600 nm was obtained using the PerkinElmer ViewLux plate reader to assess yeast growth. The data was normalized to the positive control of an equimolar mixture of ferric chloride (FeCl3) and clioquinol and to the negative control DMSO.
Potency is the fitted concentration of half-maximal effect; tags give direction and shape of the fitted curve.

Row | SMILES | Potency | growth rescue
1 | C=C(C)CN(Cc1ccccc1)C(=S)Nc1ccccc1 | inconclusive [activator, partial curve, poor fit] | –
2 | O=C(Cc1c(F)cccc1Cl)Nc1ccon1 | – | inconclusive: -57.3% [activator]
3 | c1ccc(-c2cc3nc(NCc4cccs4)ccn3n2)cc1 | inconclusive [activator, partial curve] | –
4 | Cc1cccc(C)c1NC(=S)NC1CCCCC1 | inconclusive [activator, partial curve] | –
5 | CC(C)c1ccc(COC(=O)CN2C(=O)NC3(CCCCC3C)C2=O)cc1 (stereo not given) | inconclusive [activator, single point] | –
6 | CC(=O)NC(Cc1ccccc1)C(=O)NC1CCN(C(=O)c2cnccn2)CC1 (stereo not given) | inconclusive [activator, partial curve] | –
7 | CCn1cc(C(=O)N[C@@H](CCSC)C(=O)NCCCOC)c(=O)c2cc3c(cc21)OCO3 | – | inactive: -0.26%
8 | Cc1[nH]c2ccccc2c1SCC(=O)O | inconclusive [activator, partial curve, poor fit] | –
9 | O=C(CN(c1ccc(F)cc1)S(=O)(=O)c1ccccc1)NCCSC1CCCCC1 | inconclusive [activator, partial curve] | –
10 | CC(=O)C(Sc1ncnc2sc3c(c12)CCCC3)C(C)=O | inconclusive [activator, single point] | –
11 | C#Cc1ccc(NC(=O)C2(C)CCN2C(=O)C/C=C/c2ccccc2)cc1 (stereo not given) | – | inactive: 7%
12 | N/C(=N\OC(=O)N1c2ccccc2Sc2ccccc21)c1ccccc1 | – | inactive: -93.7%
13 | CC1CCCC(NC(=O)Cn2cc(Br)ccc2=O)C1C (stereo not given) | inconclusive [activator, single point] | –
14 | CC(=O)NC(c1cccc(F)c1)c1nc(-c2cccc(F)c2)cs1 (stereo not given) | inconclusive [activator, full curve, poor fit] | –
15 | COc1ccc(Oc2nc(-c3ccccn3)nc3ccccc23)cc1 | inconclusive [activator, single point] | –
16 | CCOc1ccccc1NC(=O)COC(=O)COc1c(Cl)cc(Cl)c2ccc(C)nc12 | – | inactive: 2.15%
17 | CCC(=O)C1=C(c2ccc(F)cc2)N(C(=O)CC)n2cnnc2S1 | – | inactive: -20.7%
18 | S=c1nc(C2CCCCC2)n(-c2ccccc2)[nH]1 | active: 12.6 µM | –

Row | SMILES | Potency | growth rescue
19 | COc1ccc(OCC(=O)O/N=C(\N)c2ccc(OC)c(OC)c2)cc1 | – | inactive: 1.46%
20 | CCc1ccc(NC(=O)CSc2nccn2-c2ccc(F)cc2)cc1 | inconclusive [activator, single point] | –
21 | Fc1ccc(-c2nc3c4ccccc4ccn3c2Cc2ccccc2C(F)(F)F)cc1 | inconclusive [activator, single point] | –
22 | COc1ccc(-c2c(C)nc3c(-c4ccccn4)cnn3c2N)cc1 | inconclusive [activator, single point] | –
23 | OCc1ccccc1SSc1ccccc1CO | inconclusive [activator, single point] | –
24 | C[C@@H](C(=O)NCC1CCCO1)N1C(=O)N2CCc3c([nH]c4ccccc34)[C@@]2(C)C1=O (stereo not given in full) | – | inactive: -8.9%
25 | CCCCN1C(=O)C(O)(CC(=O)c2ccc(C(C)(C)C)cc2)c2ccccc21 (stereo not given) | inconclusive [activator, partial curve] | –
26 | O=C(COc1ccc2ccccc2c1)N/N=C/c1ccccn1 | inconclusive [activator, partial curve, poor fit] | –
27 | COc1ccccc1N1CC(C(=O)NCC2COc3ccccc3O2)CC1=O (stereo not given) | – | inactive: 2.31%
28 | COc1ccc(CNC(=O)C2(C)Cc3c(-c4ccc(C(N)=O)cc4)ccnc3O2)cc1OC (stereo not given) | – | inactive: -0.931%
29 | Cc1csc(NC(=O)c2sc3nc(-c4cccs4)ccc3c2N)n1 | – | inactive: -19.6%
30 | COC(=O)c1sccc1S(=O)(=O)N(CC(=O)NCc1ccc(C)cc1)c1ccc(C)cc1 | – | inactive: -14.7%
31 | Cc1ccc(C(=O)NC(=S)NCC2CCCO2)cc1[N+](=O)[O-] (stereo not given) | inconclusive [activator, single point] | –
32 | COc1ccc(C(O)c2nc(-c3ccc(F)cc3OC)cs2)cc1 (stereo not given) | inconclusive [activator, partial curve] | –
33 | Cc1cc(C)n(-c2nc(NC(C)(C)C)nc(NC(C)(C)C)n2)n1 | inconclusive [activator, full curve] | –
34 | O=C(NNC(=S)NC1CCCCC1)c1ccccc1Br | inconclusive [activator, partial curve, poor fit] | –
35 | O=C(NC1CCCCC1)C1CCCN(S(=O)(=O)c2cccs2)C1 (stereo not given) | inconclusive [activator, single point] | –
